Over roughly 13,000 compounds, “IFI” has its median near 4; the highest 2% begin near 17. The list shows a part of the results.

The nature of the assay: GSK_TCMDC: Inhibition Frequency Index (IFI). The number of non-kinase HTS assays where a compound showed > 50 % inhibition, expressed as a percentage of the number of such assays in which the compound was tested (-0 is zero). The assay is classed as functional.
On to `O=S(=O)(c1cc(Cl)sc1Cl)N(CCC(O)(C(F)(F)F)C(F)(F)F)Cc1cccc(O)c1`, for which the IFI worked out at 5.8%. Next, `Cc1c(CN2CCCCC2)cccc1OCCCNc1nc(NCCc2ccc(O)cc2)nc(N2CCNCC2)n1`: 7.58%. As to `O=C(NC1CCCc2ccccc21)[C@@H]1CCCN1C(=O)c1ccc(O)c(-c2cccc([N+](=O)[O-])c2)c1` (stereo partly specified), the IFI was determined as 2.1%. Regarding `O=C1C[C@@H]([S+]([O-])Cc2nccs2)N1CCOCCCCCCc1ccc(Cl)cc1` (stereo partly specified), the IFI amounted to 5.26%. Next, `Nc1c2c(nc3ccc(Oc4ccc(Br)cc4Br)cc13)CCCC2`: 6.21%; `CC1(C)N=C(N)N=C(N)N1OCCCOc1cccc(C(=O)O)c1`: 0.75%; `CC(=O)Nc1nc(C(=O)Nc2ccc(-c3cccc(-c4nc5cc(F)ccc5[nH]4)c3)cc2)cs1`: 6.09%. Compound `Cc1ccc(NC(=O)c2cccc(N3CCN(c4ccncc4)CC3)c2)cc1F` returned an IFI of 7.14%.

In the case of `COc1ccc(-c2cccc(NC(=O)c3cccc(C#N)c3)c2)cc1CN1CCN(C)CC1`, the IFI was 2.97%.

`CN(C)CCCN(C)c1cccc2c1nc(-c1cccnc1)n2CCNCc1ccccc1`: the IFI turned out to be 3.33%. Next, `Cc1noc(-c2ccccc2)c1NC(=O)N1CCN(CCCCCCNC(=O)/C=C/c2ccc(Cl)c(Cl)c2)CC1`: 2.36%; `CC1(C)N=C(N)N=C(N)N1OCc1cccc(C#N)c1`: 2.17%; `FC(F)(F)c1ccc2[nH]c(-c3cccc(-c4ccc(CNCc5cnn(-c6ccccc6)n5)cc4)c3)nc2c1`: 1.64%. `CCCC(CNCc1cccc(C)c1)CNc1cc(=O)c2ccccc2[nH]1` (stereo unspecified) returned an IFI of 2.9%. For `CN(CCc1ccccc1)c1ncc(-c2cccc(CNCCC3CCCN3C)c2)cn1` (stereo unspecified), the IFI turned out to be 10%. `CCOC(=O)C1=C(C)N=c2sc(=Cc3cc(Cl)ccc3O)c(=O)n2C1c1ccc2c(c1)OCO2` (stereo unspecified) returned an IFI of 2.11%. For `CCCN(C(=O)c1ccccc1C)c1nnc(-c2ccccc2C)s1`, the IFI is 4.39%. The compound `CC[C@H](NC(=O)c1ccc(NC(=O)OC(C)(C)C)cc1)C(=O)N[C@@H](CO)C(=O)NCCCCc1ccccc1` registered an IFI of 2.84%. `Cc1nc2ccc(-c3ccc(OC(F)(F)F)cc3)cc2c(O)c1C#N` showed an IFI of 1.82%. Consider `COc1cc(Cc2cnc(N)nc2N)cc(OCCCCCC(=O)O)c1OC`, for which the IFI was -0%. `COc1ccccc1-n1ccnc1SCC(=O)Nc1cccc(C(F)(F)F)c1` showed an IFI of 5.93%. `O=C(Nc1ccc(-c2ccc(-c3nc4ccccc4[nH]3)s2)cc1)Nc1ccc(F)c(F)c1F`: the IFI was determined as 2.91%.

`CC(=O)Nc1ccc(C(=O)NC2CCN(c3ccnc4cc(Cl)ccc34)C2)cc1` (stereo unspecified) yielded an IFI of -0%. With `Cc1c(Cc2ccc(C(C)C)cc2)cnc2nc(N)nc(N)c12`, the IFI was 1.55%. Take `N#Cc1cc(C(=O)c2cc(Br)ccc2O)cn(-c2cc(Cl)cc(Cl)c2)c1=O`: the IFI was 20.6%. `Cc1cc(NC(=O)c2cccs2)ccc1OC1CCN(Cc2ccccc2)C1` (stereo unspecified): the IFI is 3.13%. Turning to `O=C(Nc1ccc(Cl)c(Cl)c1)N1CCc2cc3nccc(N4CCN5CCC[C@H]5C4)c3cc21`, the IFI is 2.11%. As for `CN1CCN(c2ccc(CNc3ccc4ncc(-c5cccc(OC(F)(F)F)c5)n4n3)cc2)CC1`, the IFI is 3.82%. The compound `O=C(Nc1cccc(-c2ccc(-c3nc4cc(C(F)(F)F)ccc4[nH]3)cc2)c1)c1cccnc1` displayed an IFI of 5.56%. Consider `COCC(C)n1c(C)cc(C(=O)CSc2nnc(Nc3ccccc3)s2)c1C` (stereo unspecified), for which the IFI came to 0.73%. `CC(O)C1CCCCN1C(=O)c1cccc(-c2cccc(-c3nc4cc(C(F)(F)F)ccc4[nH]3)c2)c1` (stereo unspecified): the IFI came out at 8.41%. Next, `OCCc1ccc(Nc2nccc(-c3nnc4ccccn34)n2)cc1`: 8.53%. As for `COc1ccc(CCn2c(=N)c(C(=O)NCc3ccccc3)cc3c(=O)n4ccccc4nc32)cc1`, the IFI turned out to be 1.74%. Next, `COC(=O)Cn1c(C2CCN(CC3CCC(NC(=O)/C=C/c4ccc(Cl)c(Cl)c4)CC3)CC2)nc2ccccc21` (stereo unspecified): 2.14%; `O=C(Nc1cccc(Cl)c1)OC1CCCN2CCCCC12` (stereo unspecified): 0%. Next, `O=C(NCCCCCN1CCC(c2c[nH]c3ccccc23)CC1)c1ccc(-c2cccnc2)cc1`: 4.76%; `O=C(Nc1cccc(-c2cccc(F)c2)c1)C1CCN(Cc2ccc(O)cc2)CC1`: 2.38%. `CCCCc1ccc(-c2nc(NC(=O)Nc3[nH]c(-c4ccccc4)nc3C(=O)OCC)c(C(=O)OCC)[nH]2)cc1` returned an IFI of 3.73%. With `CN(C)CCCN1CCN(Cc2ccc(-c3ccc(-c4nc5ccccc5[nH]4)s3)cc2)CC1`, the IFI was found to be 4.88%. For `CCc1c(CCNCCCC(C)CCNCCc2ccc(OC)c(OC)c2CC)ccc(OC)c1OC` (stereo unspecified), the IFI came out at 6.57%. In turn, `CCN(CCO)CCc1cccc(Nc2nccc(-c3c(-c4ccc(NC(=O)C(C)(C)C)cc4)nn4ccccc34)n2)c1` registered an IFI of 7.14%. `COc1cc(NC(=O)N2CCc3ccc(OCCC4CCCN4C)cc32)cc(C(F)(F)F)c1` (stereo unspecified) showed an IFI of 5.11%.

On to `CCOc1ccc(NC(C)=O)c(O)c1`, for which the IFI was -0%. In the case of `Cc1ccc2cc(NC(=O)CCCCCCCON3C(N)=NC(N)=NC34CCCCC4)ccc2n1`, the IFI stood at 0.78%. Next, `CCNc1cc(C(=O)N[C@@H](Cc2ccccc2)[C@H](O)CNC(C)CCCC(C)C)cc(N2CCCS2(=O)=O)c1` (stereo partly specified): 0.72%; `CN1CCC(N2CCN(Cc3ccc(-c4ccc(-c5nc6cc(F)ccc6[nH]5)s4)cc3)CC2)CC1`: 8.33%; `CN1CCC(Oc2ccc(CN3CC[C@H](NC(=O)c4ccc(Cl)c(F)c4)C3)c3ccccc23)C1` (stereo partly specified): 8.84%. As to `Cc1cc(O)c(-c2cc(C(=O)Nc3cccnc3)[nH]n2)cc1C`, the IFI came out at 4.17%. The compound `CCOc1cc(C(=O)Nc2ccc(-c3nc4ccccc4[nH]3)cc2)cc(OCC)c1OCC` had an IFI of 1.67%. The compound `CC(C)NCc1cccc(-c2cccc(-c3nc4cc(F)ccc4[nH]3)c2)c1` displayed an IFI of 3.85%.

Consider `O=C(/C=C/c1ccc(Cl)c(Cl)c1)N1CCC(CCCN2CCC(c3c[nH]c4ccccc34)CC2)CC1`, for which the IFI is 12.2%. Compound `COc1cc(Nc2nccc(N3CCC(NS(=O)(=O)c4ccc(NC(C)=O)cc4)CC3)n2)cc(OC)c1OC` yielded an IFI of 3.08%. Take `C=C[C@]1(C)C[C@@H](OC(=O)NC(=O)CCCS(=O)(=O)c2nnc(C)s2)[C@]2(C)[C@H](C)CC[C@]3(CCC(=O)[C@H]32)[C@@H](C)[C@@H]1O`: the IFI turned out to be 2.14%. In turn, `CC(=O)Nc1nc(C(=O)Nc2cccc(-c3ccc(-c4nc5cccc(C)c5[nH]4)cc3)c2)cs1` yielded an IFI of 6.09%. `CN1CC(c2ccccc2)c2cc(O)c(CN3CCCCC3)cc2CC1Cc1ccccc1` (stereo unspecified) gave an IFI of 1.53%. Compound `Cc1nc(C)c(-c2ccc(Oc3ccc([S+](C)[O-])cc3)cc2)c(O)c1Br` (stereo unspecified) gave an IFI of 0.77%.

The values are drawn from ChEMBL document CHEMBL1157539, “Thousands of chemical starting points for antimalarial lead identification” (Nature, 2010).
